From PubChem BioAssay AID445 (National Center for Advancing Translational Sciences (NCATS), 2006)
Hit rate of the full screen: of about 110,000 compounds, about 40 (0.04%) were called active. This list was built around the results that the source calls inconclusive (neither active nor inactive); the mix of calls is not that of the screen. Calls follow the shape of the dose curve; as a rule, active = well fitted curve in the direction sought with a large enough effect in the signal ratio (not every such curve was filed as active); inconclusive = small, poorly fitted or top-dose-only effect, or a change in a side signal; inactive = flat fitted curve, though single readings scatter; the % refers to the signal ratio. Potencies beside an inconclusive call are fits to weak or partial responses and may not hold up.

Experiment: IkB Signaling;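 as to IkBa stabilization activation: 0% = basal untreated cells and 100% = reference inhibitor full response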
Conditions: ABC-DLBCL IkBa-CBG/CBR dual luciferase ratio (green luciferase fused to IkBa over red control in OCI-Ly3 lymphoma cells), 4 h; IkBa stabilization activation: at 57.1 µM (top of the series), scaled: untreated 0%, proteasome inhibitor 100% unless noted
Outline: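 Curves were fitted separately to fusion (green), unfused (red) and ratio luminescence, then classed by r2, magnitude and activity. Cells: OCI-Ly3, 4 h compound plus doxycycline at 37C; 10 uM MG-132 defined full response.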
Potency is read from the fitted curve at half-maximal effect.

| Compound | IkBa stabilization activation | Potency |
| --- | --- | --- |
| Cc1cc(C)cc(NC(=O)C(Cc2ccccc2)NS(=O)(=O)c2ccc3c(c2)CCC(=O)N3)c1 (stereo unspecified) | inconclusive: 0.794% [signal inhibitor] | – |
| CCOc1ccccc1NC(=O)C(=O)Nc1ccc2nc3n(c(=O)c2c1)CCCCC3 | inconclusive: 10.4% [signal inhibitor] | – |
| Cc1ccc2c(c1)c1cccc3c1n2CCN3CCC(N)=O | inactive | – |
| CCOC(=O)C1(C)C=C(Nc2cccc(C(=O)O)c2)C(=O)N1c1ccccc1 (stereo unspecified) | – | inconclusive: 3.98 µM [signal inhibitor, partial curve] |
| Cc1ccc(CNC(=O)C(=O)NCC(c2ccc3c(c2)OCO3)N2CCOCC2)cc1 (stereo unspecified) | inconclusive: -0.676% [signal inhibitor] | – |
| COc1ccccc1N1CCN(C(=O)C2CCCN(S(=O)(=O)c3ccc4c(c3)CCCN4C(C)=O)C2)CC1 (stereo unspecified) | inconclusive: 8.82% [signal inhibitor] | – |
| Cn1nc(CC(=O)Nc2ccc(N3CCN(C(=O)OC(C)(C)C)CC3)cc2)c2ccccc2c1=O | inconclusive: 4.61% [signal inhibitor] | – |
| COc1cc(Cl)c(C)cc1NC(=O)c1cnc(N2CCCCC2)c2ccccc12 | – | inconclusive: 20 µM [signal inhibitor, partial curve] |
| CC(C)Cn1c(-c2cccc(Br)c2)nc2ccccc21 | inconclusive: -0.0479% [signal inhibitor] | – |
| CCOC(=O)c1cc2c(=O)n3cccc(C)c3nc2n(CCOC)c1=NC(=O)c1ccncc1 | inactive | – |
| O=C(CSc1nc(-c2cccc(F)c2)[nH]c1-c1ccccc1)Nc1ccc2c(c1)OCO2 | inconclusive: -2.77% [signal inhibitor] | – |
| COc1ccc(-n2c(Cc3cccn3C)nnc2SCC(=O)Nc2ccc(C)cc2)cc1 | inconclusive: 2.76% [signal inhibitor] | – |
| Cc1ccc(-n2ncc(C(=O)NCc3ccco3)c2C2CCN(C(=O)OC(C)(C)C)CC2)cc1C | inconclusive: 3.27% [signal inhibitor] | – |
| COc1cc(NC(=O)c2cc3cc4ccc(C)cc4nc3o2)cc(OC)c1OC | inactive | – |
| Cc1cc(N2CCCCC2)nc(SCC(=O)c2ccccc2)n1 | inconclusive: 7.93% [signal inhibitor] | – |
| COc1cccc(Cn2c(=O)c(-c3ccccc3)nc3cncnc32)c1 | inactive: 0.615% [at 11.4 µM, scaled: untreated 0%, proteasome inhibitor 100%] | – |
| COc1ccc(OC)c(NS(=O)(=O)c2ccc(NC(=O)C3COc4ccccc4O3)cc2)c1 (stereo unspecified) | inconclusive: 1.99% [signal inhibitor] | – |
| O=C(Nc1sc2c(c1C(=O)NCc1cccnc1)CCCC2)c1ccco1 | inconclusive: 4.25% [signal inhibitor] | – |
| CCCCCCOc1ccc(C2C(=O)N(C3CCCCC3)CC(=O)N2C2CCCCC2)cc1 (stereo unspecified) | inconclusive: 0.0315% [signal inhibitor] | – |
| CCN(CC)S(=O)(=O)c1ccc(C(=O)NCCSc2c(-c3ccccc3)[nH]c3ccccc23)cc1 | inconclusive: -2.66% [signal inhibitor] | – |
| Cc1ccc(-c2nn3c(C)nnc3c3ccccc23)cc1S(=O)(=O)NCC(C)O (stereo unspecified) | inactive | – |
| Cc1c(C(=O)NCc2cccnc2)sc2nc(-c3ccc(F)cc3)cn12 | inconclusive: 3.9% [signal inhibitor] | – |

| Compound | IkBa stabilization activation | Potency |
| --- | --- | --- |
| COc1cc(NC(=O)CSc2c3c(nc4ccccc24)CCC3)cc(OC)c1OC | inconclusive: 6.91% [signal inhibitor] | – |
| CCN(CC)c1nc2cc(OC)ccc2cc1C#N | inactive | – |
| COc1ccc(N(C)S(=O)(=O)c2cccc(C(=O)Nc3ccc(-n4cnnn4)cc3)c2)cc1 | inconclusive: 4.12% [signal inhibitor] | – |
| O=C1CC(Sc2nnc(-c3ccccc3O)o2)C(=O)N1c1ccccc1 (stereo unspecified) | inconclusive: 7.54% [signal inhibitor] | – |
| CC1CCN(c2ccc(-c3cccc(NS(=O)(=O)c4ccc(F)cc4F)c3)nn2)CC1 | inconclusive: 0.555% [signal inhibitor] | – |
| CCOC(=O)c1sc(NC(=O)c2c(-c3ccccc3)c(-c3ccccc3)nn(C)c2=O)nc1C | inconclusive: 3.27% [signal inhibitor] | – |
| CC1CCN(C(=O)CSc2nc(-c3ccc(F)cc3)cc(C(F)(F)F)n2)CC1 | inconclusive: 4.5% [signal inhibitor] | – |
| CCOC(=O)c1c(-c2cccs2)csc1NC(=O)CN1CCOCC1 | inactive | – |
| CCc1ccc(Nc2nc3ccccc3nc2NS(=O)(=O)c2ccccc2)cc1 | – | inconclusive: 12.6 µM [signal inhibitor, partial curve] |
| CCOc1cc(NC(=O)c2cnccn2)c(OCC)cc1NC(=O)c1ccc(OC)cc1 | inactive | – |
| Cc1cc2c(cc1S(=O)(=O)Nc1cc(C(F)(F)F)cc(C(F)(F)F)c1)OCC(=O)N2 | inconclusive: 6.46% [signal inhibitor] | – |
| O=C(Cn1c(=O)nc(-c2ccccc2)c2ccccc21)Nc1ccc(Cl)cc1F | inconclusive: 3.49% [signal inhibitor] | – |
| CCCCOC(=O)c1ccc(NC(=O)c2sc3nc(C)cc(C)c3c2N)cc1 | – | inconclusive: 0.501 µM [signal inhibitor, full curve] |
| COc1ccc(N(C)C(=O)Cn2cc(S(=O)(=O)N3CCN(c4ccccc4F)CC3)c3ccccc3c2=O)c(OC)c1 | inconclusive: 2.85% [signal inhibitor] | – |
| COc1ccc(NC2=C(c3ccc(C(F)(F)F)cc3)C(=O)c3ccccc32)cc1 | inconclusive: -1.34% [signal inhibitor] | – |
| COc1cccc(NC(=O)CN2C(=O)c3ccccc3Sc3ncccc32)c1 | inactive | – |
| CC(=O)O[C@H]1C(=O)[C@@]2(C)[C@H]([C@H](OC(=O)c3ccccc3)[C@]3(O)C[C@H](OC(=O)[C@H](O)[C@@H](NC(=O)c4ccccc4)c4ccccc4)C(C)=C1C3(C)C)[C@]1(OC(C)=O)CO[C@@H]1C[C@@H]2O | inactive | – |
| FC(F)(F)c1ccc(N2CCN(c3cc(-c4ccccc4)nc4ncnn34)CC2)nc1 | inconclusive: -0.13% [signal inhibitor] | – |
| CN(C)c1ncc2nc(-c3ccc(Cl)cc3)c(=O)n(C[C@H]3CCCO3)c2n1 | inactive: 2.14% [at 11.4 µM, scaled: untreated 0%, proteasome inhibitor 100%] | – |
| COc1ccccc1C(=O)Nc1c(C(=O)NC(C)(C)C)oc2ccccc12 | inactive | – |
| COc1ccc(S(=O)(=O)N2CCN(c3ccccc3OC)CC2)cc1 | inconclusive: 0.873% [signal inhibitor] | – |
| O=C1c2ccccc2C(=O)N1Cc1nc(-c2ccncc2)no1 | inactive | – |

| Compound | IkBa stabilization activation | Potency |
| --- | --- | --- |
| Cc1ccc(-c2nc(C)c(CCNC(=O)c3ccccc3Br)s2)cc1 | inconclusive: 0.587% [signal inhibitor] | – |
| CCN1C(=O)/C(=C2\C=Cc3ccccc3N2CC)OC1=S | inactive | – |
| FC(F)(F)c1cc(-c2ccco2)nc(NCc2ccco2)n1 | inactive | – |
| COCCNC(=O)c1ccccc1NC(=O)c1nsc2ccccc12 | inactive | – |
| COc1nc(-c2ccccc2)cc(-c2ccc(OC)c(OC)c2)n1 | inconclusive: -0.971% [signal inhibitor] | – |
| COc1ccc2[nH]cc(CCN=C(NC(=O)c3ccccc3OC)Nc3nc(C)cc(C)n3)c2c1 | inconclusive: -3.42% [signal inhibitor] | – |
| COC(=O)Cn1c(SCCOc2ccccc2OC)nc2ccccc21 | inactive | – |
| Cc1ccc(NC(=O)c2ccc(NC(=O)CCS(=O)(=O)c3cccs3)cc2)cc1F | inconclusive: -1.16% [signal inhibitor] | – |
| CC[C@H](C)[C@@H]1O[C@]2(CC[C@@H]1C)C[C@H]1C[C@H](CC=C(C)[C@@H](O[C@H]3C[C@H](OC)[C@H](O[C@H]4C[C@H](OC)[C@H](O)[C@H](C)O4)[C@H](C)O3)[C@@H](C)C=CC=C3CO[C@@H]4[C@@H](O)C(C)=C[C@H](C(=O)O1)[C@@]34O)O2 | inactive | – |
| COc1cccc(Cn2cc(C(=O)c3ccc(Cl)cc3)c(=O)c3ccccc32)c1 | inconclusive: -0.174% [signal inhibitor] | – |
| Clc1ccc(OCc2nc(-c3ccncc3)no2)c(Br)c1 | inconclusive: 8.15% [signal inhibitor] | – |
| Cc1ccccc1Nc1c(-c2ccc(N3CCOCC3)cc2)nc2ccc(Br)cn12 | inactive | – |
| CCSc1ncc(Cl)c(C(=O)Nc2cccc(Cl)c2)n1 | inactive | – |
| CCc1c(C)sc2c1CCN(Cc1ccccc1F)C2c1ccccc1 (stereo unspecified) | inconclusive: 7.01% [signal inhibitor] | – |
| CCOc1ccc(-c2c(C)nn3c(C)c(C(=O)NCCc4ccc(C)cc4)cnc23)cc1OCC | inconclusive: -4.31% [signal inhibitor] | – |
| O=C(NCCSc1c[nH]c2ccccc12)c1ccccc1Cl | inconclusive: -2.17% [signal inhibitor] | – |
| CN(C)CCCO[C@H]1[C@H]([C@H](O)CO)O[C@H]2OC(C)(C)O[C@@H]21 | inactive | – |
| CC(C)(C)n1ncc2c(=O)n(CC(=O)NCc3ccccc3Cl)cnc21 | inactive | – |
| CCN1CCN(Cc2c(O)ccc3oc(C)c(C(=O)Nc4cccc(C(F)(F)F)c4)c23)CC1 | inconclusive: 0.558% [signal inhibitor] | – |
| COc1cccc(NC(=O)c2c(C)oc3nc(C)nc(N4CCCC4)c23)c1 | inconclusive: 2.57% [signal inhibitor] | – |
| CCC(=O)N1CCc2cc(S(=O)(=O)CCC(=O)N3CCN(c4cccc(C)c4C)CC3)ccc21 | inactive | – |
| Cc1cccc(C)c1NC(=O)c1cc(S(=O)(=O)N2CCc3ccccc3C2)ccc1F | inactive | – |
